From PubChem BioAssay (Tox21)
Values joined by “and” are separate entries in the source; they are usually repeats but may differ in a detail not shown here. Equal entries are not always repeated. The inconclusive results got no clear call from the source; some entries with a clear call stand among them for comparison. Where the call is inconclusive, the potency comes from a doubtful curve fit. Active and inactive are the calls of the source. Calls come from the whole dose curve; as a rule, active = well fitted cell-killing curve with a large enough effect in the repeat runs; inconclusive = weak or mixed curves, or effect the other way; inactive = flat fitted curve, though single readings scatter.

Assay: qHTS RealTime-Glo MT Cell Viability Assay in HEK293 cells - 32 hour (AID 1224868); note: nearly all actives have a fitted effect of over 50% in size; for activity change, negative = cytotoxic: top concentration of the series differs between compounds
Conditions: RealTime-Glo luminescence; series mostly up to 76.8 µM; activity change, negative = cytotoxic: at the top concentration
Description: National Center for Advancing Translational Sciences [NCATS]
NIH Chemical Genomics Center [NCGC]
U.S. Environmental Protection Agency [EPA]
National Institutes of Environmental Health Sciences [NIEHS]
National Toxicology Program [NTP]
U.S. Food and Drug Administration [FDA]
Measure of cell viability is critical in the cell-base assay. Analysis of cell viability is necessary for the characterization of cell responses to cytotoxic drugs and environmental stress. A RealTime-Glo MT Cell Viability Assay to monitor cell viability in real time of continues cell culture during 40 hours of compound treatment was used to screen Tox21 10K library compounds in Hek293 cells. The RealTime-Glo MT Cell Viability Assay is a nonlytic, homogeneous, bioluminescent method to measure cell viability in real time using a simple, plate-based method. The assay involves adding NanoLuc luciferase and a cell-permeant prosubstrate to cells in culture. Viable cells reduce the proprietary prosubstrate to generate a substrate for NanoLuc luciferase. This substrate diffuses from cells into the surrounding culture medium, where it is rapidly used by the NanoLuc Enzyme to produce a luminescent signal. The signal correlates with the number of viable cells, making the assay well suited for cytotoxicity studies.
Tox21 Assay Protocol Summary:
The mixture of Hek293 cell suspension and reagents were dispensed at 600cells/6 ul/well in 1536-well tissue culture treated black solid bottom plates using a Multidrop dispenser. After the assay plates were incubated at a 37 C/5% CO2 incubator for 5 hours, 23 nL of compounds dissolved in DMSO, positive and negative controls was transferred to the assay plate by a pintool work station. The plates were incubated at 37 C for 40 hours. The luminescence intensity were measured at 0h, 8h, 16h, 24h, 32h and 40h time points using ViewLux plate reader during compound treatment.
% is set by controls: 0 for no effect and ±100 for the full control effect; potency is the fitted concentration of half-maximal effect; tags give direction and shape of the fitted curve.

Which “activity change, negative = cytotoxic” value does the source give for `CN(C)C(=O)CNC(=O)Cc1ccccc1` here?
Its value is inactive: 7.28% [at 35.3 µM].

With `C=CC(=O)OCC(Br)CBr` (stereo not given) as the compound, how does the Potency read?
Its Potency is inconclusive: 49 µM [rising, partial curve].

For `C[C@]12C=CC(=O)C=C1[C@@H](F)C[C@@H]1[C@@H]2[C@@H](O)C[C@@]2(C)[C@H]1CC[C@]2(O)C(=O)CO`, which “activity change, negative = cytotoxic” value is on record?
Its value is inactive: 1.05% [at 35.3 µM].

For `CCCCCCC=O`, which Potency is on record?
Its Potency is inconclusive: 30.9 µM [rising, partial curve, poor fit].

With `O=C(c1ccccc1)c1ccccc1` as the compound, how does the Potency read?
The Potency was “inactive”.

With `CCOc1ccccc1N` as the compound, how does the Potency read?
Its Potency is inconclusive: 15.4 µM [cytotoxic, full curve].

Which “activity change, negative = cytotoxic” value does the source give for `OCCCO` here?
Its value is inactive: 11.2%.

Which Potency does the source give for `O=C(C1CCCCC1)N1CC(=O)N2CCc3ccccc3C2C1` (stereo not given) here?
Its Potency is inconclusive: 54.8 µM [cytotoxic, partial curve, poor fit] and inconclusive: 43.6 µM [cytotoxic, partial curve].

With `Cc1cc(O)c2c(O)c3c(O)cccc3cc2c1` as the compound, how does the “activity change, negative = cytotoxic” value read?
Its value is inactive: -16.5% [at 35.3 µM].

With `CCCOc1ccc(S(=O)(=O)N2CCN(CC)CC2)cc1-c1nc2c(CC)n(Cc3ccccn3)nc2c(=O)[nH]1` as the compound, how does the Potency read?
The Potency was inconclusive: 38.9 µM [cytotoxic, partial curve, poor fit].

For `c1ccc2c(c1)ccc1ccccc12`, which Potency is on record?
The Potency was inconclusive: 49 µM [cytotoxic, partial curve].

Which Potency does the source give for `O=C(O)c1ccc(S(=O)(=O)O)cc1C(=O)O` here?
Its Potency is inconclusive: 55.1 µM [cytotoxic, single point].

For `CC[C@]12CCCN3CCc4c(n(c5ccccc45)C(=O)C1)[C@@H]32`, which Potency is on record?
The Potency was active: 4.77 µM.

For `O=c1[nH]c2ccc(S(=O)CCN3CCC(Cc4ccc(F)cc4)CC3)cc2o1` (stereo not given), which Potency is on record?
The Potency was inconclusive: 30.9 µM [cytotoxic, partial curve].

Which “activity change, negative = cytotoxic” value does the source give for `CC1CCC(=O)C1=O` (stereo not given) here?
The value was inactive: 2.75%.

For `Cc1c(C)n(CCN(C)C)c2ccc(C(=O)OCCN(C)C)cc12`, which Potency is on record?
Its Potency is inconclusive: 23.9 µM [cytotoxic, single point].

For `Clc1cc(Cl)c2c(c1)N=C1CCCCCN1C2`, which Potency is on record?
Its Potency is inconclusive: 21.3 µM [cytotoxic, partial curve, poor fit].

With `Cc1c(N(C)CS(=O)(=O)O)c(=O)n(-c2ccccc2)n1C` as the compound, how does the Potency read?
The Potency was “inactive”.

Which Potency does the source give for `CC(C)(O)Cc1ccccc1` here?
The Potency was inconclusive: 49 µM [cytotoxic, partial curve].

For `CC1=CC(=C(c2ccc(N)cc2)c2ccc(N)cc2)C=CC1=N`, which Potency is on record?
The Potency was inconclusive: 1.97 µM [cytotoxic, partial curve].

Which Potency does the source give for `CC(=O)[C@H]1CC[C@H]2[C@@H]3C[C@H](C)C4=CC(=O)CC[C@]4(C)[C@H]3[C@@H](O)C[C@]12C` here?
Its Potency is inconclusive: 23.9 µM [cytotoxic, partial curve].

For `CC(=O)Oc1cccc(C)c1`, which “activity change, negative = cytotoxic” value is on record?
Its value is inactive: 4.66% [at 35.3 µM].

For `CC(C)(O)c1ccc(CNC(=O)c2cccnc2Oc2ccc(F)cc2)cc1`, which Potency is on record?
The Potency was inconclusive: 21.9 µM [cytotoxic, partial curve].

For `COc1ccccc1OC(=O)Oc1ccccc1OC`, which “activity change, negative = cytotoxic” value is on record?
Its value is inactive: 7.36% [at 35.3 µM].

For `C=COCCCC`, which Potency is on record?
Its Potency is inconclusive: 54.9 µM [rising, single point].

Which Potency does the source give for `CC1=C(C)S(=O)(=O)CCS1(=O)=O` here?
Its Potency is inconclusive: 17.1 µM [rising, partial curve] and inconclusive: 21.9 µM [rising, partial curve].

With `O=C(NS(=O)(=O)/C=C/c1cccs1)c1ccc(F)cc1Br` as the compound, how does the Potency read?
Its Potency is inconclusive: 21.9 µM [cytotoxic, partial curve, poor fit].

Which Potency does the source give for `CCCCCC/C(C=O)=C\c1ccccc1` here?
Its Potency is “inactive”.

With `CCCC(C)C` as the compound, how does the Potency read?
The Potency was inconclusive: 55.5 µM [cytotoxic, single point].

Which Potency does the source give for `O=C(CCCN1CCC(O)(c2ccc(Br)cc2)CC1)c1ccc(F)cc1` here?
Its Potency is active: 9.52 µM.

With `N#C/C(=C1\SCC(c2ccccc2Cl)S1)n1ccnc1` (stereo not given) as the compound, how does the Potency read?
Its Potency is inconclusive: 21.3 µM [cytotoxic, partial curve].

With `CCCCCC/C=C/C=O` as the compound, how does the “activity change, negative = cytotoxic” value read?
The value was inactive: 38.3%.

Which Potency does the source give for `C#C[C@]1(O)CC[C@H]2[C@@H]3CCC4=CC(=O)CC[C@@H]4[C@H]3CC[C@@]21C` here?
Its Potency is inconclusive: 43.6 µM [cytotoxic, partial curve].

For `COc1cc2c(cc1OC)-c1cc(=Nc3c(C)cc(C)cc3C)n(C)c(=O)n1CC2`, which Potency is on record?
Its Potency is inconclusive: 6.74 µM [cytotoxic, partial curve].

With `CC(=O)CC(c1ccc([N+](=O)[O-])cc1)c1c(O)c2ccccc2oc1=O` (stereo not given) as the compound, how does the “activity change, negative = cytotoxic” value read?
The value was inactive: -3.46% [at 35.3 µM].

Which Potency does the source give for `CC(C)(C)C(=O)C(Oc1ccc(Cl)cc1)n1ccnc1` (stereo not given) here?
Its Potency is inconclusive: 9.52 µM [cytotoxic, partial curve, poor fit].

With `CC1CCCCC1` as the compound, how does the “activity change, negative = cytotoxic” value read?
The value was inactive: 9.64%.

With `O=C(Cl)c1ccc(F)c(Cl)c1` as the compound, how does the Potency read?
Its Potency is inconclusive: 49 µM [rising, single point].

With `O=C(Nc1ccccc1)c1cc([N+](=O)[O-])ccc1Cl` as the compound, how does the “activity change, negative = cytotoxic” value read?
The value was inactive: -12%.

For `CCn1nc(Cc2ccccc2)cc1C1CCN(C[C@H]2C[C@H](N(C)[C@@H](C(=O)O)C(C)C)C[C@@H]2c2cccc(F)c2)CC1`, which Potency is on record?
The Potency was inconclusive: 38.9 µM [cytotoxic, partial curve].
